Reference: the supplement of paper PMC10369915
Some of the results follow. No stated cut-off is given here; in the data, active = 3.2 or more and inactive = the rest. Most of these values are background signal.

Columns and labels:
Assay in all cases: enrichment score (SH2-bound / input frequency) (ratio); bacterial display of known human phosphotyrosine sites (pTyr-Var adds point mutants) read by sequencing; higher = stronger binding; tyrosines were phosphorylated by kinases first
Conditions in all cases: peptide library: pTyr-Var
[1] = biological target: SHP2 C-SH2 domain E139D
[2] = biological target: SHP2 C-SH2 domain wild-type
[3] = biological target: SHP2 N-SH2 domain L43F
[4] = biological target: SHP2 N-SH2 domain T42A
[5] = biological target: SHP2 N-SH2 domain T52S
[6] = biological target: SHP2 N-SH2 domain wild-type

Measured: enrichment score
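Further: displayed peptides selected on beads carrying the immobilized SH2 domain, with library peptides lacking any tyrosine serving as negative controls.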

TRSYDYTEGGD [FGF7_Y58_M59T]
inactive: [1] 0.486 | [2] 0.474 | [3] 0.599 | [4] 0.51 | [5] 0.624 | [6] 0.609

CTHDLYMFMRE [FGFR3_Y724_I726F]
inactive: [1] 0.952 | [2] 1.09 | [3] 0.845 | [4] 0.807 | [5] 0.882 | [6] 1.01

IIRYNYLLDVL [FGFR4_Y237_S232I]
active: [4] 4.62
inactive: [1] 3 | [2] 2.35 | [3] 2.77 | [5] 2.62 | [6] 2.34

TRSFDYMEGGD [FGF7_Y58_YF]
inactive: [1] 0.739 | [2] 0.507 | [3] 0.563 | [4] 0.571 | [5] 0.538 | [6] 0.643

VHNLDYYKMTT [FGFR3_Y647_K650M]
inactive: [1] 0.96 | [2] 0.994 | [3] 0.896 | [4] 0.679 | [5] 0.866 | [6] 1.08

RHTRSYDFTEG [FGF7_Y56_M59T_YF]
inactive: [1] 0.815 | [2] 0.868 | [3] 0.879 | [4] 0.673 | [5] 0.649 | [6] 0.878

IHHIDYYKETT [FGFR1_Y653_K656E]
inactive: [1] 1.3 | [2] 1.08 | [3] 1.45 | [4] 1.03 | [5] 1.43 | [6] 1.28

TSNQEYLYLSM [FGFR1_Y766_D768Y]
inactive: [1] 0.715 | [2] 0.708 | [3] 0.718 | [4] 0.685 | [5] 0.569 | [6] 0.856

SIRYNYLLDVL [FGFR4_Y237]
inactive: [1] 1.08 | [2] 1.48 | [3] 1.17 | [4] 2.63 | [5] 1.07 | [6] 0.868

HNLDYYKETTN [FGFR3_Y648_K650E]
inactive: [1] 1.08 | [2] 2.26 | [3] 0.791 | [4] 0.661 | [5] 0.866 | [6] 1.06

GYKVRYATWSI [FGFR1_Y210]
inactive: [1] 2.98 | [2] 3.12 | [3] 2.65 | [4] 3.03 | [5] 2.71 | [6] 2.44

CTHDLYMIMRE [FGFR3_Y724]
inactive: [1] 1 | [2] 1.08 | [3] 0.949 | [4] 0.849 | [5] 1.02 | [6] 1

ATGMEYLASQK [FGFR2_Y616_R612T]
inactive: [1] 0.859 | [2] 0.906 | [3] 0.665 | [4] 0.776 | [5] 0.835 | [6] 0.867

HNLDFYKKTTN [FGFR3_Y648_YF]
inactive: [1] 0.621 | [2] 0.584 | [3] 0.79 | [4] 0.54 | [5] 0.437 | [6] 0.931

FMCKVYSDRQP [FGFR1_Y280_P283R]
inactive: [1] 0.659 | [2] 0.794 | [3] 0.698 | [4] 0.728 | [5] 0.612 | [6] 0.995

ARGMEYLASKK [FGFR1_Y613]
inactive: [1] 0.694 | [2] 0.831 | [3] 0.603 | [4] 0.502 | [5] 0.547 | [6] 0.631

RHTRSYDYMEG [FGF7_Y56]
inactive: [1] 1.26 | [2] 0.986 | [3] 0.867 | [4] 0.813 | [5] 1.15 | [6] 1.16

FMFKVYSDPQP [FGFR1_Y280_C277Y_YF]
inactive: [1] 0.839 | [2] 0.886 | [3] 0.865 | [4] 0.641 | [5] 0.62 | [6] 1.01

LVSCAYQMARG [FGFR1_Y605_V607M]
inactive: [1] 0.828 | [2] 0.862 | [3] 1.02 | [4] 0.881 | [5] 1.35 | [6] 1.3
